# A collection of fitness landscapes (doi:10.1016/j.celrep.2020.107928)
# Over roughly 81,000 sequences, “one-hybrid fitness for binding parS DNA” has its median near -0.17; the highest 2% begin near 0.51. Some of the results follow.
# B1: Caulobacter ParB omega fusion; a variant is named by its letters at X, in order, B8GW30 (parent)
# chain: MESVVVGEPGMSEGRRGLGRGLSALLGEVDAAPAQAPGEQLGGSREAPIEILQRNPDQPRRTFREEDLEDLSNSIREKGVLQPILVRPSPDTAGEYQIVAGERAWRAAQRAGLKTVPIMVRELDDLAVLEIGIIENVQRADLNVLEEALSYKVLMEKFERTQENIAQTIGKSXSHVANXMRLLXLPDEVQSYLVSGELTAXHARAIAAAADPVALAKQIIEGGLSVRETEALARKAPNLSAGKSKGGRPPRVKDTDTQALESDLSSVLGLDVSIDHRGSTGTLTITYATLEQLDDLCNRLTRGI
# Variants of: B1
# Test: one-hybrid fitness for binding parS DNA (scaled: cognate 1, non-cognate 0); higher = stronger binding
# Conditions: with parS DNA site
# Method in brief: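 Caulobacter ParB libraries with four specificity codons randomised were screened by bacterial one-hybrid selection in the E. coli USO strain, using a HIS3 reporter whose site lies 19 bp from the promoter. Selection ran for 48 hours at 37°C on M9 lacking histidine, with 0.1 mM IPTG and 5 mM 3-AT. Plasmids were Illumina-sequenced before and after selection, three replicate libraries were pooled, and variants with under 10 reads were dropped. Fitness is the log change in each variant's read ratio to wild type, rescaled against the cognate and non-cognate sites.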
row,Variant,one-hybrid fitness for binding parS DNA
1,VFTK,≤ 0.2
2,MNYR,≤ 0.2
3,FAAS,≤ 0.2
4,IHCL,≤ 0.2
5,ADVR,≤ 0.2
6,PNGC,≤ 0.2
7,NHAC,≤ 0.2
8,VKGT,≤ 0.2
9,IFPY,≤ 0.2
10,PLTF,≤ 0.2
11,GYQT,≤ 0.2
12,MYPT,≤ 0.2
13,HIYT,≤ 0.2
14,EPRF,≤ 0.2
15,YTQG,≤ 0.2
16,RDCW,≤ 0.2
17,ALDN,≤ 0.2
18,TAAP,≤ 0.2
19,PYAR,≤ 0.2
20,LDHY,≤ 0.2
21,ERPW,≤ 0.2
22,FNCC,≤ 0.2
23,QEAE,≤ 0.2
24,TLPG,≤ 0.2
25,VRVT,≤ 0.2

row,Variant,one-hybrid fitness for binding parS DNA
1,FDDS,≤ 0.2
2,DANG,≤ 0.2
3,FHIF,≤ 0.2
4,MYWS,≤ 0.2
5,GPWC,≤ 0.2
6,HMDM,≤ 0.2
7,ESMT,≤ 0.2
8,DFNG,≤ 0.2
9,EMGS,≤ 0.2
10,VFLS,≤ 0.2
11,VTYR,≤ 0.2
12,ASAM,≤ 0.2
13,HHSM,≤ 0.2
14,RVYA,0.64
15,MHNT,≤ 0.2
16,RAAR,≤ 0.2
17,EPFW,≤ 0.2
18,KLMG,≤ 0.2
19,KAHV,≤ 0.2
20,TMTT,≤ 0.2
21,WVYT,≤ 0.2
22,PCKR,≤ 0.2
23,LFTR,≤ 0.2
24,QPNG,≤ 0.2
25,VVTN,≤ 0.2

row,Variant,one-hybrid fitness for binding parS DNA
1,CTDW,≤ 0.2
2,GERC,≤ 0.2
3,VCTK,≤ 0.2
4,RMIH,0.223
5,QAPA,≤ 0.2
6,WNKP,0.274
7,PCRC,≤ 0.2
8,CMNM,≤ 0.2
9,QANY,≤ 0.2
10,PKPV,≤ 0.2
11,RMSC,0.956
12,FWMC,≤ 0.2
13,YDSG,≤ 0.2
14,WRDR,≤ 0.2
15,TWNR,≤ 0.2
16,FILT,≤ 0.2
17,ETYS,≤ 0.2
18,MTPE,≤ 0.2
19,CPPS,≤ 0.2
20,DAHV,≤ 0.2
21,ARSE,≤ 0.2
22,NWRD,≤ 0.2
23,AMTI,≤ 0.2
24,FPFL,≤ 0.2
25,ITHR,≤ 0.2

row,Variant,one-hybrid fitness for binding parS DNA
1,CLVH,≤ 0.2
2,CRYS,≤ 0.2
3,HQFL,≤ 0.2
4,IYRG,≤ 0.2
5,YSNL,≤ 0.2
6,SHLR,≤ 0.2
7,YILL,≤ 0.2
8,PKGA,≤ 0.2
9,RNWC,0.569
10,TLHR,≤ 0.2
11,AWLS,≤ 0.2
12,KTGT,≤ 0.2
13,QYGS,≤ 0.2
14,ISMK,≤ 0.2
15,PADG,≤ 0.2
16,PNDE,≤ 0.2
17,QAPM,≤ 0.2
18,KTKL,≤ 0.2
19,QTDL,≤ 0.2
20,DDIR,≤ 0.2
21,LFYI,≤ 0.2
22,NGYS,≤ 0.2
23,TPSA,≤ 0.2
24,HKVM,≤ 0.2
25,YPRT,≤ 0.2

row,Variant,one-hybrid fitness for binding parS DNA
1,NRKA,≤ 0.2
2,PDIR,≤ 0.2
3,QCHG,≤ 0.2
4,AKMS,≤ 0.2
5,GSPF,≤ 0.2
6,VLLS,≤ 0.2
7,QYMC,≤ 0.2
8,TYCY,≤ 0.2
9,STKN,≤ 0.2
10,QNAL,≤ 0.2
11,IDYA,≤ 0.2
12,HRPP,≤ 0.2
13,YFMR,≤ 0.2
14,QHKQ,≤ 0.2
15,KWGS,≤ 0.2
16,NVRS,≤ 0.2
17,QINC,≤ 0.2
18,LRHI,≤ 0.2
19,PLIL,≤ 0.2
20,TRRQ,≤ 0.2
21,VHAC,≤ 0.2
22,ELPI,≤ 0.2
23,CLMI,≤ 0.2
24,MVNK,≤ 0.2
25,QSYK,≤ 0.2

row,Variant,one-hybrid fitness for binding parS DNA
1,QNEV,≤ 0.2
2,PLND,≤ 0.2
3,CGLF,≤ 0.2
4,WARG,≤ 0.2
5,DNHS,≤ 0.2
6,HAAA,≤ 0.2
7,RQNR,≤ 0.2
8,CYES,≤ 0.2
9,HNCS,≤ 0.2
10,NTCS,≤ 0.2
11,LWHG,≤ 0.2
12,MRTP,≤ 0.2
13,FSKC,≤ 0.2
14,FNIT,≤ 0.2
15,ASRC,≤ 0.2
16,RFYT,0.801
17,PDGY,≤ 0.2
18,TLKI,≤ 0.2
19,QQTD,≤ 0.2
20,CGQR,≤ 0.2
21,SFLC,≤ 0.2
22,RHYL,≤ 0.2
23,LSHW,≤ 0.2
24,PSQN,≤ 0.2
25,CGIR,≤ 0.2

row,Variant,one-hybrid fitness for binding parS DNA
1,GSNV,≤ 0.2
2,EGHS,≤ 0.2
3,LSVQ,≤ 0.2
4,NVRN,≤ 0.2
5,NSRE,≤ 0.2
6,GGTV,≤ 0.2
7,ATQC,≤ 0.2
8,TWQR,≤ 0.2
9,IFPR,≤ 0.2
10,HRIR,≤ 0.2
11,TMIN,≤ 0.2
12,FKSC,≤ 0.2
13,RDNC,≤ 0.2
14,GNNC,≤ 0.2
15,VMNT,≤ 0.2
16,AERM,≤ 0.2
17,VYNS,≤ 0.2
18,ETDS,≤ 0.2
19,LSME,≤ 0.2
20,AIKR,≤ 0.2
21,HHVT,≤ 0.2
22,IYAV,≤ 0.2
23,YFTG,≤ 0.2
24,NCIG,≤ 0.2
25,WSMS,≤ 0.2

row,Variant,one-hybrid fitness for binding parS DNA
1,SVRW,≤ 0.2
2,LPNR,≤ 0.2
3,PMRN,≤ 0.2
4,RFYC,0.867
5,QDMY,≤ 0.2
6,PNVW,≤ 0.2
7,AMDV,≤ 0.2
8,VHTA,≤ 0.2
9,KPWS,≤ 0.2
10,HGPV,≤ 0.2
11,VTFI,≤ 0.2
12,DSLA,≤ 0.2
13,AFPY,≤ 0.2
14,GYLG,≤ 0.2
15,ECQL,≤ 0.2
16,IRYE,≤ 0.2
17,RPQM,≤ 0.2
18,IVTP,≤ 0.2
19,RLLN,0.44
20,VNVR,≤ 0.2
